# Measurements: the BET-seq Pho4 binding data (Le et al. 2018)
# This is one part of the list. Values were computed here from the reads of four pooled replicates and scatter widely.
# Target: T1, Pho4 (S. cerevisiae) (UniProt P07270)
# T1 sequence: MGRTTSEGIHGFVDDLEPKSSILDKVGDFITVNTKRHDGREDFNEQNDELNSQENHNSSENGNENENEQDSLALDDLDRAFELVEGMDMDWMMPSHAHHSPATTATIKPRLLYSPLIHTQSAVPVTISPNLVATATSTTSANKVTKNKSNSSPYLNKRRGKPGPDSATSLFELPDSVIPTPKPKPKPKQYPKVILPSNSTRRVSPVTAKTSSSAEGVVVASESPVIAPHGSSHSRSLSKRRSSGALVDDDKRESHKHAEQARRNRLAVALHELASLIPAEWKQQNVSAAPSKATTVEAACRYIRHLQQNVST
# Assay: relative binding free energy (BET-seq); higher = weaker binding
# Conditions: reference: library average
row,Sequence,relative binding free energy
1,AACGGCACGTGGGTGG,-0.24 kcal/mol
2,ATGGGCACGTGGGGTG,-0.26 kcal/mol
3,CGTGTCACGTGGCTGA,0.02 kcal/mol
4,AGTAGCACGTGCGTGT,-0.26 kcal/mol
5,CAAGGCACGTGGTATG,-0.22 kcal/mol
6,ATGCGCACGTGTAGTG,-0.03 kcal/mol
7,GGCGGCACGTGATCGG,0.1 kcal/mol
8,AGTAGCACGTGAGACG,0.24 kcal/mol
9,CGGTGCACGTGGAGCT,0.03 kcal/mol
10,GGGTTCACGTGTTCAG,0.39 kcal/mol
11,GATTGCACGTGTTGCG,0.08 kcal/mol
12,TTGCCCACGTGGGTGG,-0.24 kcal/mol
13,TGGGCCACGTGAGTGA,0.21 kcal/mol
14,TAGGGCACGTGTGGCT,-0.21 kcal/mol
15,AACGGCACGTGTAGAG,0.06 kcal/mol
16,GTGTTCACGTGGCTGG,0.22 kcal/mol
17,TGAGGCACGTGTTGTT,-0.05 kcal/mol
18,GATTCCACGTGGGAGG,0.06 kcal/mol
19,GTAGTCACGTGAGGGG,0.37 kcal/mol
20,TAAGGCACGTGCATGG,-0.21 kcal/mol
21,TCATGCACGTGTTGGC,0.11 kcal/mol
22,ATAAGCACGTGTTGTC,0 kcal/mol
23,TAGTGCACGTGTTTAA,-0.11 kcal/mol

row,Sequence,relative binding free energy
1,GGGGGCACGTGCATCG,-0.13 kcal/mol
2,GCTTGCACGTGTATTT,0.27 kcal/mol
3,AAAATCACGTGATTTG,0.34 kcal/mol
4,TAGGCCACGTGGTATG,-0.22 kcal/mol
5,ATTGGCACGTGCTTGT,-0.21 kcal/mol
6,TGATGCACGTGGATTT,0.02 kcal/mol
7,ATTTACACGTGTGGAG,0.14 kcal/mol
8,TGATGCACGTGCTGGC,-0.04 kcal/mol
9,ATGACCACGTGAGGGT,0.02 kcal/mol
10,AGTCACACGTGGGTGG,-0.07 kcal/mol
11,GGAAGCACGTGGGCTT,-0.15 kcal/mol
12,TGGTGCACGTGTAGCT,-0.13 kcal/mol
13,GGTGTCACGTGAGAGC,0.23 kcal/mol
14,GGCAACACGTGGGTGT,-0.14 kcal/mol
15,TGATGCACGTGATAGT,-0.05 kcal/mol
16,TTTGCCACGTGGGAGT,-0.1 kcal/mol
17,AGCTACACGTGAGGGT,0.26 kcal/mol
18,TCGTCCACGTGTTGTG,-0.02 kcal/mol
19,TAGAGCACGTGTGAAT,0.03 kcal/mol
20,CGGGTCACGTGAGTTT,0.31 kcal/mol
21,AAGGTCACGTGGCTGA,0.01 kcal/mol
22,TGGCTCACGTGTGATG,0.33 kcal/mol
23,AATGCCACGTGGGGTT,-0.35 kcal/mol

row,Sequence,relative binding free energy
1,AGAGGCACGTGAGTGT,0.16 kcal/mol
2,GTGCGCACGTGTTGTG,-0.09 kcal/mol
3,GGATTCACGTGGACTT,0.34 kcal/mol
4,TTGGGCACGTGTTTCG,-0.16 kcal/mol
5,GTTATCACGTGGTTCT,0.06 kcal/mol
6,TAGGTCACGTGCGTTA,0.13 kcal/mol
7,ACGGGCACGTGGGGTG,-0.37 kcal/mol
8,GGTATCACGTGTGAAA,0.17 kcal/mol
9,TATTCCACGTGTTGAT,0.16 kcal/mol
10,CTTTTCACGTGGCTAG,0.32 kcal/mol
11,GATGTCACGTGCATTT,0.09 kcal/mol
12,CTTAACACGTGGGCGT,-0.08 kcal/mol
13,CAGGGCACGTGTTGTT,-0.01 kcal/mol
14,ATGTGCACGTGTCCTG,-0.01 kcal/mol
15,TGGCACACGTGTGGGG,0.19 kcal/mol
16,CAGTTCACGTGGGTTC,0.16 kcal/mol
17,GTTAGCACGTGATATT,0.1 kcal/mol
18,TTTTACACGTGTGCTC,0.16 kcal/mol
19,TTTAGCACGTGGGGAA,-0.02 kcal/mol
20,GTCATCACGTGAGGTT,0.16 kcal/mol
21,TTTATCACGTGGGCTA,-0.09 kcal/mol
22,TTACTCACGTGAAGTT,0.47 kcal/mol
23,AGTTGCACGTGGCAGG,-0.08 kcal/mol

row,Sequence,relative binding free energy
1,GTTTGCACGTGAAGTA,0.23 kcal/mol
2,TTGGTCACGTGGCTGT,0.01 kcal/mol
3,CTGGGCACGTGGAGTA,-0.27 kcal/mol
4,ATTCGCACGTGCTGTA,0.01 kcal/mol
5,GTAATCACGTGGGTTG,0.16 kcal/mol
6,GTTGTCACGTGGAGTG,0.09 kcal/mol
7,TTATTCACGTGTTTTC,0.19 kcal/mol
8,TGCTTCACGTGGGGGG,0.22 kcal/mol
9,TGGTTCACGTGGGCGT,0.15 kcal/mol
10,CTCGTCACGTGTTGGT,0.07 kcal/mol
11,GCAAGCACGTGGTGGA,-0.02 kcal/mol
12,TTCAGCACGTGTATTG,-0.05 kcal/mol
13,GCTTTCACGTGTGGGG,0.34 kcal/mol
14,TTGTGCACGTGAAGTC,0.25 kcal/mol
15,AGTGACACGTGTGCTG,-0.18 kcal/mol
16,TTTGTCACGTGGGTCC,0.05 kcal/mol
17,TGTGACACGTGGCTAA,-0.04 kcal/mol
18,GGTGGCACGTGGTTTC,-0.1 kcal/mol
19,ATAAGCACGTGGGTGG,-0.25 kcal/mol
20,AGTATCACGTGGTGCA,0.05 kcal/mol
21,GGTATCACGTGAGTCG,0.39 kcal/mol
22,GTCTTCACGTGATTTC,0.6 kcal/mol
23,TTCGGCACGTGTTGTC,0.08 kcal/mol

row,Sequence,relative binding free energy
1,GTGGACACGTGATGAT,0.11 kcal/mol
2,GGAGGCACGTGCGATT,0.05 kcal/mol
3,TTAGGCACGTGAGGTA,0.1 kcal/mol
4,TAAGCCACGTGTGTGG,-0.12 kcal/mol
5,TCGATCACGTGAGAGG,0.39 kcal/mol
6,GGTAGCACGTGGTGGC,-0.13 kcal/mol
7,GTGAACACGTGTGTAA,0.03 kcal/mol
8,ACGTTCACGTGACGGG,0.46 kcal/mol
9,TAAATCACGTGAGGTG,0.15 kcal/mol
10,GGGTGCACGTGCCTGT,-0.15 kcal/mol
11,GGTTGCACGTGTCAGT,0.17 kcal/mol
12,CTGGTCACGTGGCTGT,-0.02 kcal/mol
13,CGGTACACGTGATGGA,0.23 kcal/mol
14,TTCTACACGTGGTGGA,-0.08 kcal/mol
15,TAATACACGTGTAATT,0.14 kcal/mol
16,GTGTACACGTGATGCA,0.29 kcal/mol
17,TAACACACGTGTTGTT,-0.01 kcal/mol
18,GGAGACACGTGTGGGC,-0.12 kcal/mol
19,TGGCGCACGTGGGGTC,-0.28 kcal/mol
20,AAGTGCACGTGTCTTG,-0.15 kcal/mol
21,ATGTCCACGTGGTTTG,-0.19 kcal/mol
22,TGCTGCACGTGGTTTC,-0.02 kcal/mol
23,GTTGTCACGTGCTGTA,0.21 kcal/mol
